Measured values: US12679903B2, “Antibody for specifically binding to lysyl-tRNA synthetase N-terminal domain exposed to extracellular membrane” (Zymedi Co., Ltd., priority 2018, dated 2026)

B1: N3-8-1: N3-8 derivative; VH SEQ ID NO: 45, VL 51; HC 103, LC 111 (antibody)
heavy: EVQLLESGGGLVQPGGSLRLSCAASGFTFSSYDMSWVRQAPGKGLEWVSAISPYSGRIYYADSVKGRFTISRDNSKNTLYLQMNSLRAEDTAVYYCARMALDFDYWGQGTLVTVSS[letters of human IgG1 constant region omitted]
light: QSVLTQPPSASGTPGQRVTISCTGSSSNIGSNYVTWYQQLPGTAPKLLIYDNSNRPSGVPDRFSGSKSGTSASLAISGLQSEDEADYYCSSFSDELGAYVFGGGTKLTVLGQPKAAPSVTLFPPSSEELQANKATLVCLISDFYPGAVTVAWKADSSPVKAGVETTTPSKQSNNKYAASSYLSLTPEQWKSHRSYSCQVTHEGSTVEKTVAPTECS
modifications: IgG heavy chain 6; IgG light chain 3
notes: N3-8 derivative; HC 103, LC 111
B2: N3-8-1 mutant LALAPGTA: N3-8-1 with ADCC/CDC function removed; HC SEQ ID NO: 232, LC 111 (antibody)
heavy: EVQLLESGGGLVQPGGSLRLSCAASGFTFSSYDMSWVRQAPGKGLEWVSAISPYSGRIYYADSVKGRFTISRDNSKNTLYLQMNSLRAEDTAVYYCARMALDFDYWGQGTLVTVSSASTKGPSVFPLAPSSKSTSGGTAALGCLVKDYFPEPVTVSWNSGALTSGVHTFPAVLQSSGLYSLSSVVTVPSSSLGTQTYICNVNHKPSNTKVDKKV[letters of human IgG1 Fc with L234A L235A T299A P329G (EU numbers) omitted]
light: QSVLTQPPSASGTPGQRVTISCTGSSSNIGSNYVTWYQQLPGTAPKLLIYDNSNRPSGVPDRFSGSKSGTSASLAISGLQSEDEADYYCSSFSDELGAYVFGGGTKLTVLGQPKAAPSVTLFPPSSEELQANKATLVCLISDFYPGAVTVAWKADSSPVKAGVETTTPSKQSNNKYAASSYLSLTPEQWKSHRSYSCQVTHEGSTVEKTVAPTECS
modifications: IgG heavy chain 6_IgG1 mutant LALAPGTA_amino acid; IgG light chain 3

Columns and labels:
RAW264.7 cells = experiment: LN421-dependent immune cell migration assay; type: cell-based; conditions: 10 nM, 24 hours, LN421 2.5 μg/ml; FIG. 18
Description: In order to confirm the effect of the mutant antibody from which the ADCC/CDC function had been removed on immune cell migration, a cell migration assay was performed according to the method described in the prior literature (Park, S. G. et al. Human lysyl-tRNA synthetase is secreted to trigger pro-inflammatory response, Proc. Natl. Acad. Sci. USA 102, 6356-6361 (2005)).
Measurements were made in a trans well chamber with a polycarbonate membrane (5.0 μm pore size, Costar). LN421 was put into the lower chamber at a concentration of 2.5 μg/ml in the trans well chamber. Then, RAW264.7 cells were placed in the upper chamber at a concentration of 5×10^4 cells per well. Then, each antibody was put into the chamber at a concentration of 10 nM, and then incubated for 24 hours. Then, it was washed twice with PBS and treated with 70% MeOH (in PBS). After washing twice with PBS again, the transferred cells were stained with crystal violet (Sigma) and dried. Then, the upper chamber was put in 33% acetic acid (Merck) and stirred for 10 minutes. Crystal violet-dissolved acetic acid solution was transferred to a 96-well plate, and absorbance was measured at 590 nm in a microplate reader (Tecan).

[1] = Thermal stability (protein thermal shift dye kit); type: physicochemical; conditions: 1 mg/ml purified antibody
Description: In addition, the thermal stability of the antibody was measured using 100 μl of the purified antibodies at a concentration of 1 mg/ml. Thermostability was investigated 4 times using protein thermal shift dye kit (Thermofisher) and Quant Studio 3 Real-time PCR equipment (Thermofisher).

[2] = tested on: T52D KRS-MDA-MB-231 stable cells; experiment: Laminin-dependent cancer cell migration assay; type: cell-based; conditions: 10 nM, 7 hours; FIG. 19
Description: Measurements were made in a 24-well trans well chamber with a polycarbonate membrane (8.0 μm pore size, Costar). Laminin was added to the lower chamber at a concentration of 1 mg/ml, and a migration assay was performed using stable MDA-MB-231 cells overexpressing T52D KRS, which mimics a phosphorylated KRS. To induce T52D KRS expression, T52D KRS-MDA-MB-231 stable cells were treated with doxycycline (0.1 μg/ml) for one day, and then seeded in the upper chamber at a concentration of 4×10^4 cells after suspended in serum-free RPMI medium. […] The non-migrating cells existing above the membrane were removed with a cotton swab. The membrane was washed twice with PBS and treated with 70% MeOH (in PBS) for 30 minutes. Again washed twice with PBS, the membrane was stained using crystal violet (Slgma), and dried. Then, the upper chamber was put in 33% acetic acid (Merck) and stirred. Crystal violet-dissolved acetic acid solution was transferred to a 96-well plate, and absorbance was measured at 590 nm in a microplate reader (Tecan).

Molecule	LN421-dependent cell migration (RAW264.7 cells)	Thermal stability Tm1 [1]	laminin-dependent migration of cancer cells [2]
B1	inhibited LN421-dependent cell migration	69.94	inhibited the laminin-dependent migration of cancer cells
B2	inhibited LN421-dependent cell migration	–	inhibited the laminin-dependent migration of cancer cells
